Test results taken from PubChem BioAssay AID463173 (ICCB-Longwood Screening Facility, Harvard Medical School, 2010).
Among all 52,000 compounds or so, about 4,300 (8.3%) were called active. No stated cut-off is given here; in the data, active means survival mostly below about 52% (no sharp cut-off); inactive means mostly above about 56%. Some of the results follow.

System: DeltatarO mutant
Assay: S. aureus survival, RN4220 and DeltatarO strains – OD600, teichoic acid synthesis inhibitors, primary screen (AID 463173)
Conditions: S. aureus RN4220 wild type/DeltatarO growth, OD600, 18 h, hits give low values, screened at 18.75 µg/mL (by protocol)

SMILES	survival
COc1ccc(/C=C/C(=O)Nc2sc(C)c(C)c2C(=O)O)cc1	inactive: 60%
CCOc1cc(CN2CCN(S(=O)(=O)c3ccc(C)cc3)CC2)ccc1OC	inactive: 171%
CCOc1ccc(-c2nc(SCC(=O)c3ccccc3)n[nH]2)cc1	inactive: 179%
Brc1cccc(-c2nnc(CN3CCN(c4ccccn4)CC3)o2)c1	inactive: 80%
Cc1ccc(S(=O)(=O)Cc2ccc(C(=O)NCCc3ccc(Cl)cc3)o2)cc1	inactive: 56%
COCCCNC(=O)c1cnc2c(-c3ccc(F)cc3)c(C)nn2c1C	inactive: 130%
CCOC(=O)C1CCN(C(c2cccc(F)c2)c2c(O)cc(C)n(Cc3ccco3)c2=O)CC1 (centres undefined)	inactive: 113%
O=C(c1ccc(Br)cc1)N1CCN(CCc2ccncc2)CC1	inactive: 78%
COc1ccc(-c2noc(N(c3cccc(Cl)c3)c3nc(-c4ccc(OC)c(OC)c4)no3)n2)cc1OC	inactive: 150%
O=C(NCc1ccco1)C1CCN(S(=O)(=O)Cc2ccccc2)CC1	inactive: 94%
Cc1ccc2cc(C#N)c(NCCNC(=O)Nc3ccccc3C)nc2c1	inactive: 63%
O=C1c2[nH]nc(-c3ccccc3O)c2C(c2ccccc2F)N1Cc1cccnc1 (centres undefined)	inactive: 87%
Cc1cccc(-n2c(Cc3ccccc3)nnc2SCc2nc(-c3cccs3)no2)c1	inactive: 60%
CCOC(=O)c1ccc(N2C(=O)c3n[nH]c(-c4ccco4)c3C2c2ccc(O)c(OCC)c2)cc1 (centres undefined)	inactive: 69%
Cc1cccc(Nc2nnc(-c3ccc(C)c(S(=O)(=O)NCC4CCCO4)c3)c3ccccc23)c1 (centres undefined)	inactive: 82%
COCCNc1ccc(-c2nc(-c3ccco3)no2)cc1[N+](=O)[O-]	inactive: 54%
COC(=O)C1=C(C)NC(=O)C1(NC(=O)c1cc(OC)c(OC)c(OC)c1)C(F)(F)F (centres undefined)	inactive: 54%
Cc1cc(C)nc(NC(=NCCc2c[nH]c3ccc(Cl)cc23)NC(=O)c2ccccc2C)n1	inactive: 81%
C=Cc1ccc(Cn2nc(-c3ccc(C)cc3)ccc2=O)cc1	active: 35%
CCOC(=O)c1cc(C)n(CC2CCC(C(=O)Nc3cccc(C)c3)CC2)c1C (centres undefined)	inactive: 98%
CCOC(=O)c1c(NC(=O)c2ccc(S(=O)(=O)N3CCC(C)CC3)cc2)sc2c1CCN(CC)C2	inactive: 75%
CCn1c(C)nnc1SCC(=O)Nc1cccc(Cl)c1	inactive: 101%
O=C(O)CCCn1cnc2ccccc2c1=O	inactive: 100%

SMILES	survival
O=C(NC1CCCCC1)c1ccc(CSc2nc3cccnc3n2Cc2ccc(F)cc2)cc1	active: 25%
COc1ccc(CCN2C(=O)C3C(C(=O)Nc4cc(C)on4)C4(C)C=CC3(O4)C2C(=O)NC2CCCCC2)cc1 (centres undefined)	inactive: 76%
COc1ccc(S(=O)(=O)NCC(c2ccco2)N2CCN(c3ccccc3)CC2)cc1OC (centres undefined)	inactive: 89%
CCOC(=O)c1cc(-c2ccccc2)n(CCCC(=O)Nc2cccc(C)c2C)c1C	inactive: 116%
O=C(O)CCn1c(=O)c2cccn2c2cccnc21	inactive: 98%
Cc1[nH]c(=O)[nH]c(=O)c1S(=O)(=O)N1CCN(c2ccccc2Cl)CC1	inactive: 70%
CCN1CCN(C(=S)NCC2CCCO2)CC1 (centres undefined)	inactive: 73%
N#Cc1ccccc1Cn1c(=O)n(-c2cccc(C(F)(F)F)c2)c(=O)c2sccc21	inactive: 69%
COC(=O)c1ccc(NC(=O)CN2C(=O)CCc3cc(S(=O)(=O)N4CCCCC4)ccc32)cc1	inactive: 102%
CCOc1cc2[nH]c(=O)n(CCCCC(=O)N3CCN(c4cccc(Cl)c4)CC3)c(=O)c2cc1OCC	inactive: 85%
Cc1cccc2sc(N(Cc3cccnc3)C(=O)c3cccs3)nc12	inactive: 75%
CCc1ccc(CN2CCc3nc(Nc4ccccc4)ncc3C2)cc1	inactive: 84%
CC(=O)Nc1ccc(NC(=O)c2cc3sccc3n2Cc2ccc(F)cc2)cc1	inactive: 138%
CC(C)(C)C1CCc2c(sc3nc(-c4cc5cc(Br)ccc5oc4=O)[nH]c(=O)c23)C1 (centres undefined)	inactive: 77%
CCOC(=O)c1c(C)[nH]c(CCC(=O)NCc2ccc(F)cc2)c1C	inactive: 89%
COc1ccccc1NC(=O)c1sc2nc(C)c(C(=O)Nc3ccc(C)cc3C)c(-c3cccs3)c2c1N	inactive: 85%
CCc1ccc(NC(=O)CC2C(=O)N(c3ccc(Cl)cc3)C(=O)N2Cc2ccco2)cc1 (centres undefined)	inactive: 91%
CCc1ccccc1Nc1nn2c(=O)c3ccc(C(=O)NC(C)c4ccccc4)cc3nc2s1 (centres undefined)	inactive: 80%
Cc1ccc(NC(=O)C(=O)NCC(c2cccnc2)N2CCN(c3ccccc3F)CC2)cc1Cl (centres undefined)	inactive: 73%
COc1cc2[nH]c(=O)n(CCCC(=O)NCc3ccc(Cl)cc3)c(=O)c2cc1OC	inactive: 91%
Cc1c(-c2nnc(SCC(=O)Nc3ccccc3F)o2)nnn1-c1ccc(F)cc1	inactive: 96%
CN(C)c1cc(N)c2c(n1)CCC2	inactive: 83%
COc1ccc(CNC(=O)CCc2cn(C)c3ccccc23)cc1	inactive: 57%

SMILES	survival
CC(NC(=O)c1ccc(F)cc1)C(=O)O (centres undefined)	inactive: 101%
Cc1ccc(CCNC(c2ccc(F)cc2)c2nnc(-c3ccccc3Cl)o2)cc1 (centres undefined)	active: -8%
COc1cccc(N2CCN(S(=O)(=O)c3cn(C)c(C)n3)CC2)c1	inactive: 107%
Cc1ccc(C(=O)N/C(=C/c2ccc3c(c2)OCO3)C(=O)O)cc1	inactive: 97%
COc1ccc(NC(=O)c2cc3nc(-c4ccc(Cl)c(Cl)c4)cc(C(F)(F)F)n3n2)c(OC)c1	active: 47%
CCCNC(=O)c1cnn2c(C)c(Cc3c(C)cc(C)cc3C)c(C)nc12	inactive: 57%
O=C1CCCC2=C1C(c1ccc3c(c1)OCO3)c1c([nH]c(=O)[nH]c1=O)N2 (centres undefined)	inactive: 100%
CCOc1ccccc1NC(=O)N1CCC(n2c(C)nc3cccnc32)CC1	inactive: 99%
Cc1sc2ncn(CC(=O)Nc3ccc(F)cc3F)c(=O)c2c1S(=O)(=O)N1CCC(C)CC1	inactive: 92%
Cc1cc(-c2ccc(C)c(S(=O)(=O)N3CCC(C)CC3)c2)on1	inactive: 115%
CCOC(=O)c1c(C)sc(-c2c(-c3ccc4c(c3)OCCO4)[nH]c3c2c(=O)n(C)c(=O)n3C)c1O	inactive: 128%
CC(=O)N1c2ccc(S(=O)(=O)N3CCCCCC3)cc2CC1C(=O)NC(C)C (centres undefined)	inactive: 86%
CCOC(=O)N1CCc2c(sc3c2c(=O)n(Cc2ccccc2)c(=O)n3Cc2cc(C)ccc2C)C1	inactive: 76%
CC(C)CC(=O)Nc1nc2c(s1)CC(C(C)(C)C)CC2 (centres undefined)	inactive: 102%
CCn1c(C(=O)N2CCC(C(=O)N3CCN(c4cc(C)ccc4C)CC3)CC2)cc2sccc21	inactive: 51%
COc1ccc(CNC(=O)c2ccc3nc(CCc4ccccc4)oc3c2)cc1OC	inactive: 79%
CCOc1ccc(CNC(=O)c2cccc(NC(=O)N3CCSc4ncccc43)c2)cc1	inactive: 85%
CC(=O)N1CCc2cc(S(=O)(=O)NC(CC(C)C)C(=O)Nc3ccc(C(C)C)cc3)ccc21 (centres undefined)	inactive: 61%
CC(C)Cn1cc(NC(=O)Nc2cccc(C(F)(F)F)c2)c2ccccc2c1=O	inactive: 68%
CCOC(=O)c1c(C)n(S(=O)(=O)c2ccc(C)cc2C)c2ccc(NS(=O)(=O)c3ccc(C)cc3C)cc12	inactive: 84%
COc1ccccc1Nc1sc(C(=O)c2ccc3c(c2)OCO3)c(N)c1S(=O)(=O)c1ccccc1	inactive: 71%
Cc1ccc(C2=Nc3ccccc3N(CC(=O)Nc3ccccc3F)C(=O)C2)cc1C	inactive: 71%
CCCS(=O)(=O)N1CCN(S(=O)(=O)CCC)CC1	inactive: 114%

SMILES	survival
CCc1nn(CCCC(=O)N2CCN(c3cc(Cl)ccc3C)CC2)c(=O)c2cc3occc3n12	inactive: 58%
Cc1ccc2nsnc2c1S(=O)(=O)NC(C)(C)C	inactive: 95%
CCCC1CC(C)(c2csc(NCC)n2)OC1=O (centres undefined)	active: 71%
COc1ccc(CC(=O)NC2CC(=O)N(c3cccc(F)c3)C2)cc1OC (centres undefined)	inactive: 71%
O=C1c2ccccc2C2(c3ccccc3)NCCCN12 (centres undefined)	inactive: 100%
Cc1nc(-c2ccccc2)sc1-c1ccc(SCC(=O)Nc2cccc(C(F)(F)F)c2)nn1	inactive: 41%
COc1cccc(C2CC(=O)Nc3cc4c(cc32)OCO4)c1OC(C)C (centres undefined)	inactive: 70%
COc1ccc(NC(=O)CSCC(=O)O)cc1	inactive: 105%
CCC(=O)N1CCc2cc(Br)cc(S(=O)(=O)N3CCC(C(=O)Nc4ccccc4CC)CC3)c21	inactive: 84%
CC(=O)NC1CC(=O)N(c2ccc3c(c2)OCCO3)C1 (centres undefined)	inactive: 55%
CCOc1cc(C(=O)Nc2ccncc2)cc(OCC)c1OCC	inactive: 94%
COc1cc(OC)c(NC(=O)C2CCN(C(=O)c3sc4nc[nH]c(=O)c4c3C)CC2)cc1Cl	inactive: 86%
CC(C)Oc1ccc(CNC(=O)C2CCN(c3nc4ccccc4nc3C(F)(F)F)CC2)cc1	inactive: 69%
CCC1Oc2ccc(C)cc2N(CC(=O)NCc2ccc(OC)cc2)C1=O (centres undefined)	active: 39%
CCCCN1C(=O)c2[nH]nc(-c3ccccc3O)c2C1c1ccc(C(C)(C)C)cc1 (centres undefined)	inactive: 88%
O=C(Nc1cccc(Cl)c1)c1ccc2nc(CCc3ccccc3)oc2c1	inactive: 69%
CCCn1c2ccccc2c2cnn(CC(=O)NCc3ccccc3Cl)c(=O)c21	inactive: 108%
O=c1oc2ccccc2cc1-c1nnc(Nc2ccc(Cl)cc2Cl)s1	inactive: 81%
CCN(CC)CCCNC(=O)Cc1ccc(NC(=O)N2CCCCc3ccccc32)cc1	inactive: 79%
Cc1ccc(Cn2c(-c3ccccc3)nc3ccccc32)cc1	active: -2%
